Measurements reported in PMC4336329 (PLoS ONE, 2015).
Out of some 310,000 compounds screened, about 2,200 (0.71%) showed an effect of 50% or more. Effects have a minus sign here. The list shows a part of the results.

Molecular target: human ether-à-go-go-related gene (hERG) potassium channel (human, UniProt Q12809)
Test: primary screen, population patch clamp on CHO cells stably expressing hERG

human ether-à-go-go-related gene (hERG) potassium channel, sequence (Q12809 whole entry, looked up): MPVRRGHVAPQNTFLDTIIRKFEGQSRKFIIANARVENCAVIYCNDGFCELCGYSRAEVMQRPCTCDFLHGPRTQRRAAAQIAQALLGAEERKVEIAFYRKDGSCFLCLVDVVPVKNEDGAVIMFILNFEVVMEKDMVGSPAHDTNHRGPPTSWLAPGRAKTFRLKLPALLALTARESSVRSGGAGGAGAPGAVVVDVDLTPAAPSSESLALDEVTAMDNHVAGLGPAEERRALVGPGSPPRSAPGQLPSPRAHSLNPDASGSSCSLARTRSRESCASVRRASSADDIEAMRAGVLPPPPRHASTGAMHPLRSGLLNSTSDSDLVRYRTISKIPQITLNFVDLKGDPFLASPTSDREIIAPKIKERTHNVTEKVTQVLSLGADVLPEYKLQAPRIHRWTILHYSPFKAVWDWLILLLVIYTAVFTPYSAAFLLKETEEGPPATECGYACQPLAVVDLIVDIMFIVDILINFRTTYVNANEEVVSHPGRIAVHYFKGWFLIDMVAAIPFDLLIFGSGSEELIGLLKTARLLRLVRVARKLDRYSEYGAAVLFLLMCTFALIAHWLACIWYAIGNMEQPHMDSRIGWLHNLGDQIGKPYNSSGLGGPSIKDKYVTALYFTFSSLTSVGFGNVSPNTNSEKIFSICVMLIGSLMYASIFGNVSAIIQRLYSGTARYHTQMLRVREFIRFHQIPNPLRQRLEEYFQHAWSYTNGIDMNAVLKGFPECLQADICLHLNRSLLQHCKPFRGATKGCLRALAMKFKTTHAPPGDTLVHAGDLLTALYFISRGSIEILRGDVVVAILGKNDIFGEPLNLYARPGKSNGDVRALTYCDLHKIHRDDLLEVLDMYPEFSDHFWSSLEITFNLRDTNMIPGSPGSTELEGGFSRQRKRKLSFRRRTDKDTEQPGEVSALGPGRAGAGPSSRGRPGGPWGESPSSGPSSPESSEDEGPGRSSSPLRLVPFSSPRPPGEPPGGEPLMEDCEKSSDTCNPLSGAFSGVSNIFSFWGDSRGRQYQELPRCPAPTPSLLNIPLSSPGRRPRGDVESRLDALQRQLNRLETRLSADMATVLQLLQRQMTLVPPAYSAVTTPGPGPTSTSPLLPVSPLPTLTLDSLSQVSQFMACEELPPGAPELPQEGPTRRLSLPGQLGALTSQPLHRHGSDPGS

Going from O=C(Nc1ccccc1Cl)c1ccc(-n2cccn2)c([N+](=O)[O-])c1 to Cc1nc2ccc(NC(=O)c3ccc([N+](=O)[O-])cc3)cc2s1, the “hERG current change (%, negative = inhibition) at 1uM” value rises from 6.01% to 10.6%.

Going from O=c1[nH]c2ccccc2nc1-c1ccc(Cl)cc1 to O=[N+]([O-])CC(=Nc1ccc(Cl)cc1)N/N=C\c1oc(O)c2ccccc12, the “hERG current change (%, negative = inhibition) at 1uM” value falls from 18.7% to 6.07%.

Compared with CCOC(=O)c1csc(NC(=O)CSc2nnnn2CC)n1, CCn1c(SCC(=O)NCC(=O)Nc2ccc(F)cc2)nnc1-c1ccncc1 is lower in “hERG current change (%, negative = inhibition) at 1uM” value: 9.27% for the first, 5.93% for the second.

First: COc1ccc(-c2nnc(NC(=O)c3ccc(S(=O)(=O)N4CCCc5ccccc54)cc3)o2)cc1
Second: COc1ccc(-c2cc(C(=O)Nc3ccc(S(=O)(=O)Nc4onc(C)c4C)cc3)c3ccccc3n2)cc1
The “hERG current change (%, negative = inhibition) at 1uM” value of the first is lower: 5.94% for the first, 15.6% for the second.

Going from Cn1c(SCC(=O)C(C)(C)C)nnc1-c1ccccn1 to Cc1ccc(CSc2nnc(-c3ccccn3)n2C)cc1, the “hERG current change (%, negative = inhibition) at 1uM” value rises from 1.57% to 7.53%.

First: COc1ccc(NC(=O)C2CC(=O)N/C(=N/NC(=O)c3ccc(Cl)cc3)S2)cc1 (centres unmarked)
Second: COc1ccc(C2N(c3ccc(Cl)cc3)C(=O)C3CCCN32)cc1 (centres unmarked)
The “hERG current change (%, negative = inhibition) at 1uM” value of the first is lower: -4.25% for the first, 4.51% for the second.

First: Cc1ccc(C(=O)N2CCSCC2)cc1
Second: Cc1ccc(S(=O)(=O)N2CCN(CC3CC4C=CC3C4)CC2)cc1.O=C(O)C(=O)O (centres unmarked)
The “hERG current change (%, negative = inhibition) at 1uM” value of the first is lower: -6.84% for the first, 6.89% for the second.

First: Cc1noc(C)c1C(=O)OC(C)C(=O)Nc1ccc(C(N)=O)cc1 (centres unmarked)
Second: CC(=O)Nc1ccc(NC(=O)CNC(=O)c2cccc(C)c2)cc1
The “hERG current change (%, negative = inhibition) at 1uM” value of the first is lower: -8.97% for the first, 7.03% for the second.

Going from CCc1ccc(-c2nc(CN3CCC(C(=O)NCCN(CC)c4ccccc4)CC3)c(C)o2)cc1 to S=C(c1ccc(Cl)cc1)N1CCN(Cc2ccccc2)CC1, the “hERG current change (%, negative = inhibition) at 1uM” value rises from -15.6% to 7.65%.

Going from Cc1cc(N2CCN(C)CC2)nc2ccc(NC(=S)N3CCN(c4cccc(Cl)c4)CC3)cc12 to Cc1ccc2[nH]c(C(=O)N3CCN(C(c4ccccc4)c4ccccc4)CC3)cc2c1, the “hERG current change (%, negative = inhibition) at 1uM” value rises from 11.1% to 14.8%.

Going from Cc1cccc(NC(=O)CN2C(=O)NC(C)(c3ccc4ccccc4c3)C2=O)n1 (centres unmarked) to CC(=O)c1cccc(NC(=O)c2cc(=O)c3ccccc3o2)c1, the “hERG current change (%, negative = inhibition) at 1uM” value rises from -15.6% to 14.2%.

Compared with O=C(OCCCN1CCOCC1)c1ccc(O)c(O)c1, CCc1nnc(SCC(=O)Nc2ccc(N3CCOCC3)cc2)n1C is higher in “hERG current change (%, negative = inhibition) at 1uM” value: 8.77% for the first, 10.2% for the second.

Going from Nc1nc(Nc2cccc(Cl)c2)nc(NCc2ccco2)c1[N+](=O)[O-] to Cc1ccc(-n2ncc3c(NCc4ccco4)ncnc32)cc1C, the “hERG current change (%, negative = inhibition) at 1uM” value falls from 17.6% to 0.882%.

First: Cc1ccc(S(=O)(=O)Nc2ccc(-c3nnc(SCc4ccccc4Cl)o3)cc2)cc1
Second: Cc1nnc(SCc2nnc(-c3ccccc3Br)o2)n1-c1ccccc1
The “hERG current change (%, negative = inhibition) at 1uM” value of the first is higher: 13.7% for the first, 5.91% for the second.

First: CN(C1CCCC1)C1CCN(C(=S)Nc2cc(F)cc(F)c2)CC1
Second: CC(=O)N1c2ccc(S(=O)(=O)NCC3CCC(C(=O)NC4CCCCC4)CC3)cc2CC1C (centres unmarked)
The “hERG current change (%, negative = inhibition) at 1uM” value of the first is lower: -3.25% for the first, 11.7% for the second.

First: Nc1nc(SCC(=O)c2ccc(F)cc2)n[nH]1
Second: Fc1ccc(NC(=S)Nc2nccs2)cc1
The “hERG current change (%, negative = inhibition) at 1uM” value of the first is higher: 9.83% for the first, -10.7% for the second.

Going from COc1cc(CC(=O)OC2CCOC2=O)cc(OC)c1OC (centres unmarked) to COc1ccc(CC(=O)NCc2ccccn2)cc1OC, the “hERG current change (%, negative = inhibition) at 1uM” value rises from 8.86% to 14.8%.

Going from CN(C)c1ccc(C(C(=O)NCC2CCCO2)N(C(=O)c2snc(C(N)=O)c2N)c2ccc3c(c2)OCO3)cc1 (centres unmarked) to O=C(CN1CCN(S(=O)(=O)c2ccc(Br)cc2)CC1)Nc1ccc2c(c1)OCO2, the “hERG current change (%, negative = inhibition) at 1uM” value falls from 16.4% to -0.34%.

Compared with O=C(CN1C(=O)C2CC=CCC2C1=O)NCC(=O)Nc1ccc(F)c(F)c1F (centres unmarked), CCn1cc(Cl)c(C(=O)Nc2ccccc2C(N)=O)n1 is lower in “hERG current change (%, negative = inhibition) at 1uM” value: 7.4% for the first, 0.414% for the second.

First: FC(F)(F)c1nc2cc3nc4ccccc4[nH]c3cc2n1
Second: Cc1cc(C(=O)NCc2cc(C)n(C)n2)sc1-c1ccccc1
The “hERG current change (%, negative = inhibition) at 1uM” value of the first is higher: 14.6% for the first, -6.43% for the second.

First: CCCNC(=O)C(Cc1ccc(I)cc1)NC(=O)c1ccc(C#N)cc1 (centres unmarked)
Second: COc1cc(C(=O)Nc2cccc(-c3nnc(-c4ccco4)o3)c2)ccc1OC(C)=O
The “hERG current change (%, negative = inhibition) at 1uM” value of the first is higher: 15.6% for the first, -6.03% for the second.

Going from C=CSc1sc(Cl)c(N(C)C)c1[N+](=O)[O-] to CC/C(=N\NC(=O)c1ccccc1Cl)c1ccc(Br)s1, the “hERG current change (%, negative = inhibition) at 1uM” value falls from 14.8% to 5.98%.

Going from CC1(C)Cc2cccc(OCC(=O)OCC(=O)Nc3cccc(S(N)(=O)=O)c3)c2O1 to CCOc1ccccc1C(=O)N/N=C/c1c[nH]c2ccccc12, the “hERG current change (%, negative = inhibition) at 1uM” value rises from 7.6% to 19%.

Going from CC(C)(C)NC(=O)CN(C(=O)C(=O)Nc1ccc2c(c1)OCCO2)N1CCOCC1 to C/C(=N\Nc1ncc(Cl)cc1Cl)c1ccc2c(c1)OCO2, the “hERG current change (%, negative = inhibition) at 1uM” value rises from -0.319% to 2.97%.

First: O=c1c2ccccc2ncn1/N=C/c1ccccc1
Second: O=C(/C=C/c1cn(-c2ccccc2)nc1-c1cccnc1)c1ccco1
The “hERG current change (%, negative = inhibition) at 1uM” value of the first is higher: 29.8% for the first, 12.2% for the second.

Going from CCOc1cc(O)c(-c2[nH]ncc2-c2nc(C)cs2)cc1CC to CCc1cc(-c2nc(N)ncc2-c2ccc(Br)cc2)c(O)cc1OC, the “hERG current change (%, negative = inhibition) at 1uM” value falls from 10.6% to 10.4%.

First: CCOc1nc(N=C(N)N)nc2c(C)cccc12
Second: Cc1ccc(C)c2c(N)c3c(nc12)CCCCC3.O=C(O)c1cncc(Br)c1
The “hERG current change (%, negative = inhibition) at 1uM” value of the first is higher: 6.56% for the first, -51.9% for the second.

Compared with CC(C)N(C(=O)NC(=O)NCC1CCCO1)S(C)(=O)=O (centres unmarked), CN(C(=O)CSc1nnc(-c2ccc(Cl)cc2)n1CC1CCCO1)C1CCS(=O)(=O)C1 (centres unmarked) is lower in “hERG current change (%, negative = inhibition) at 1uM” value: 11.8% for the first, 2.87% for the second.
